From PMC12186615 come the findings set out here.

Chains of the proteins cited; added tags and fusions are not shown.
UniProt Q80WT2: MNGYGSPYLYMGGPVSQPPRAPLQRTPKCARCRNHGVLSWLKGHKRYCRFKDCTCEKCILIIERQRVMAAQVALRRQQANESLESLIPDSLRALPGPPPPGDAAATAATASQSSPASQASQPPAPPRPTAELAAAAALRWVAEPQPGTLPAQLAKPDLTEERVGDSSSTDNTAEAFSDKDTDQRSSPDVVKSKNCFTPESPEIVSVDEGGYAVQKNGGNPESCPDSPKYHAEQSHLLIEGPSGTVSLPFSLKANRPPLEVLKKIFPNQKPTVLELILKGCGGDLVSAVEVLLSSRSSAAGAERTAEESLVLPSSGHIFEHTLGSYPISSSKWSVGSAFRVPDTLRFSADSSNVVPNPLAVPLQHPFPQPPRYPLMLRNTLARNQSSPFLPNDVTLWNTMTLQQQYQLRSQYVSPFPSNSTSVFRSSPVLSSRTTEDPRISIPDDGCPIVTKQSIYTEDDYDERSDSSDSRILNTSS
UniProt Q13547: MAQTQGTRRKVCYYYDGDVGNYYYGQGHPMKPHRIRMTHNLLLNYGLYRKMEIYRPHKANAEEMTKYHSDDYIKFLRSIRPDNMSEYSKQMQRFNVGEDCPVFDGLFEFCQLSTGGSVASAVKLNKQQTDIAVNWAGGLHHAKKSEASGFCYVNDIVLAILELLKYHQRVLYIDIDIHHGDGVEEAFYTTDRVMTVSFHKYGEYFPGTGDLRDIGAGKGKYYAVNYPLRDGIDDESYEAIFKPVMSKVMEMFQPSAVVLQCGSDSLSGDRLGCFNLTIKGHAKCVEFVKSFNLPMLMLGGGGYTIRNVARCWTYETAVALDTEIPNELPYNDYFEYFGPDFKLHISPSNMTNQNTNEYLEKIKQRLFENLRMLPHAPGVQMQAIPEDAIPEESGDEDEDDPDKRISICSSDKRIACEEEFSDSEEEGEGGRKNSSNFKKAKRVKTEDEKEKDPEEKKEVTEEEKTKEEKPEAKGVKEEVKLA
UniProt Q92769: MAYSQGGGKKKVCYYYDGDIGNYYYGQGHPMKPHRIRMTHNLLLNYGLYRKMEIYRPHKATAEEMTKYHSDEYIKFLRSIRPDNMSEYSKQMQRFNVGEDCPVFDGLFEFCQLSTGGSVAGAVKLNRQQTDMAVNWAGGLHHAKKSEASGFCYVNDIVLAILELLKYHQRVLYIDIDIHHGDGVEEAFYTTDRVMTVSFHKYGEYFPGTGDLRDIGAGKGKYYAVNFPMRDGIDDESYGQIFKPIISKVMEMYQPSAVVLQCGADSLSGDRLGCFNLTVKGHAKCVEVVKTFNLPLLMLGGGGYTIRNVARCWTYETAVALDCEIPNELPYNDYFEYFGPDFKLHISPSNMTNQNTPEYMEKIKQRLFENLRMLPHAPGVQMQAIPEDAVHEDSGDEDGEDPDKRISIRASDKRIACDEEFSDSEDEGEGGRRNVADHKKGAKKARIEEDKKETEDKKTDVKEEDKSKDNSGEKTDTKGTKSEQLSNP

Results are given in words; binding and its absence hold for the method and conditions named. In cells and extracts the contact can be indirect. Some binding calls cover weakened binding; strength is not graded here. Tags and fused reporters may be left off the sequences shown.

The target in assay [1] is Flag-Dmrta2 (pCS2-Flag-mDmrta2) (mouse) (UniProt A2A9A2). Kind of assay: co-IP; transfected HEK293T cells lysed in IPH buffer (20 mM Tris-HCl pH 7.5, 150 mM NaCl, 2 mM EDTA, 1% NP-40); 1 mg lysate with antibody overnight at 4°C, protein G magnetic beads, four washes, Western blot; Flag-Dmrta2 alone or with increasing doses of Zfp423. For orientation: Immunoblotting shows a protein as a band on a membrane.

Assay [2] deals with T1, Zfp423 (pCDNA3-Myc-Zfp423) overexpressed in HEK293T cells (mouse) (UniProt Q80TS5).
T1 sequence: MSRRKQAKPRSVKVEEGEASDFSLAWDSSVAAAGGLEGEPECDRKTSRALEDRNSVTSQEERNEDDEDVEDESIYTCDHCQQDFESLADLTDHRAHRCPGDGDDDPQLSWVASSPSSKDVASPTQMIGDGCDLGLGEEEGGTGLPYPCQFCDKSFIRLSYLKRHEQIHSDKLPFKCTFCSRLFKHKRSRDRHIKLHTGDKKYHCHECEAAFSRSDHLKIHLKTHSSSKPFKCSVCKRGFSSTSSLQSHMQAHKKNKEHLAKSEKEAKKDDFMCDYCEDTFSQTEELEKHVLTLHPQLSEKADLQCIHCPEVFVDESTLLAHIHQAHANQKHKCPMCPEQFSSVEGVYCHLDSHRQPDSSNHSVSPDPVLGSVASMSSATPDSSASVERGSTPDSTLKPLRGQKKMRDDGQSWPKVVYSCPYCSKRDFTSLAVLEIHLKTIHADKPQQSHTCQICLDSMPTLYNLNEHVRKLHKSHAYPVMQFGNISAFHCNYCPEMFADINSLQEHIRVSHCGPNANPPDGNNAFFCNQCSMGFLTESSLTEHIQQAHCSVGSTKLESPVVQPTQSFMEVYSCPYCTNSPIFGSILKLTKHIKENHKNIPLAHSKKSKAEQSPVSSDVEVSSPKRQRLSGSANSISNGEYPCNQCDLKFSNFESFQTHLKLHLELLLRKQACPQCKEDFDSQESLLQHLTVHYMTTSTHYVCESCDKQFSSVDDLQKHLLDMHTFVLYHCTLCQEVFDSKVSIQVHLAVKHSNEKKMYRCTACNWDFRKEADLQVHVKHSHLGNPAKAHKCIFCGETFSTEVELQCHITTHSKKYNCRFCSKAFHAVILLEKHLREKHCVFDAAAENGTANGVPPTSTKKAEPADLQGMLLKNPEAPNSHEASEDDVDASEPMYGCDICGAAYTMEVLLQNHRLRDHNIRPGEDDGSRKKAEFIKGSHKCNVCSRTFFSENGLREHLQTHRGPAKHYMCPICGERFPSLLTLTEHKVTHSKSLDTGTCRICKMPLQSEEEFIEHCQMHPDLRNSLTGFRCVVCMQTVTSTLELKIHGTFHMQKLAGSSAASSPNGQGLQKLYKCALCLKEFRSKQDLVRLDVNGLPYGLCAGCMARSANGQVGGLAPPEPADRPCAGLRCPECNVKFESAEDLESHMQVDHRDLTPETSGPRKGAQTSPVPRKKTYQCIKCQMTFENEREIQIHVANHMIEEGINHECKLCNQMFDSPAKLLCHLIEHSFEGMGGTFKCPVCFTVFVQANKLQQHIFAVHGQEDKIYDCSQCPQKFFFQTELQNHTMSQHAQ
The assay is described as above.

Assay [3] concerns the target T2, Flag-Dmrta2ΔDM (pCS2 Flag mDmrta2ΔDM) (mouse) (UniProt A2A9A2).
T2 sequence: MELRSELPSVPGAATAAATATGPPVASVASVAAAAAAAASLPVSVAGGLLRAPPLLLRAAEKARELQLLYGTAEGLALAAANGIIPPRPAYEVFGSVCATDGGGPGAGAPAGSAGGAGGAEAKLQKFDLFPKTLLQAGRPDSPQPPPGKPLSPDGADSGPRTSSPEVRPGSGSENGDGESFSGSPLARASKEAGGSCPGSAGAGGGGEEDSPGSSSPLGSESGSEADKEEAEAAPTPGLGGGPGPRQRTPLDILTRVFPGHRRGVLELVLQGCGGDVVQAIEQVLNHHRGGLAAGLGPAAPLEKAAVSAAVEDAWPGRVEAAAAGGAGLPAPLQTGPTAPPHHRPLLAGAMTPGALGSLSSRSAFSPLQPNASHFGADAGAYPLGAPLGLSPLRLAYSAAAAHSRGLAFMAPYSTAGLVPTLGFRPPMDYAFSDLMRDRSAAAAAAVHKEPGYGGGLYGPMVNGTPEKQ
Described as above.

The target of the next assay is GST-Dmrta2 (mouse) (UniProt A2A9A2). Kind of assay: pull-down; GST fusion proteins on glutathione-agarose beads incubated with in vitro translated Myc-Zfp423 in 20 mM Tris pH 7.4, 0.1 M NaCl, 1 mM EDTA, 10% glycerol, 0.25% Igepal, 1 mM DTT, 1% milk, 2 h at RT; Western blot; only the target purified.
The next assay concerns the target GST-Dmrta2 DM (mouse) (UniProt A2A9A2). The description is as above.
The target in another assay is GST-Dmrt3 (mouse) (UniProt Q80WT2). Described as above.

With “HDAC1 (endogenous, HEK293T) (from UniProt Q13547 1-482) (enzyme)”, in assay [1], the binding result is reported as “binds”.

On to “Flag-Dmrta2 (pCS2-Flag-mDmrta2) (from UniProt A2A9A2 1-531)”, for which, in assay [2], the binding result is given as “binds”. As to “HDAC2 (endogenous, HEK293T) (from UniProt Q92769 1-488) (enzyme)”, the binding entry in assay [1] was “binds”.

B1: Zfp423 (pCDNA3-Myc-Zfp423) overexpressed in HEK293T cells (protein, UniProt Q80TS5 1-1292)
chain: T1 sequence
As to B1, the binding entry in assay [1] is listed as “binds”; in assay [3], “no binding”.

B2: Full-length mouse Myc-tagged Zfp423 synthesized in vitro (protein, UniProt Q80TS5 1-1292)
chain: T1 sequence
On to B2, for which the binding result with GST-Dmrta2 (mouse), in the assay with GST-Dmrta2 DM (mouse) and in the assay with GST-Dmrt3 (mouse) was “binds” throughout.
